These results are taken from the supplement of paper PMC10369915.

B1: PTPN11_Y63_D61V_YF (peptide)
chain: NTGVFYDLFGG
B2: PTPN11_Y66_D61V_YF (peptide)
chain: VFFDLYGGEKF
B3: PTPN11_Y63_G60V_YF (peptide)
chain: NTVDFYDLFGG
B4: PTPN11_Y80_E76G (peptide)
chain: AGLVQYYMEHH
B5: PTPN11_Y63_T59A (peptide)
chain: NAGDYYDLYGG
B6: PTPN11_Y62_D61G (peptide)
chain: QNTGGYYDLYG
B7: PTPN11_Y62_D61G_YF (peptide)
chain: QNTGGYFDLFG
B8: PTPN11_Y63_Y63C (peptide)
chain: NTGDYCDLYGG
B9: PTPN11_Y66_YF (peptide)
chain: DFFDLYGGEKF
B10: PTPN11_Y66_F71K_YF (peptide)
chain: DFFDLYGGEKK
B11: PTPN11_Y62_Y63C_YF (peptide)
chain: QNTGDYCDLFG
B12: PTPN11_Y66_D61G (peptide)
chain: GYYDLYGGEKF
B13: PTPN11_Y63 (peptide)
chain: NTGDYYDLYGG
B14: PTPN11_Y515_Q510E_YF (peptide)
chain: EFRFIYMAVQH
B15: PTPN11_Y62_N58K_YF (peptide)
chain: QKTGDYFDLFG
B16: PTPN11_Y66_Y63C_YF (peptide)
chain: DFCDLYGGEKF
B17: PTPN11_Y62_D61Y (peptide)
chain: QNTGYYYDLYG
B18: PTPN11_Y62_T59A (peptide)
chain: QNAGDYYDLYG

The list shows a part of the results. Cut-off read from the data, not from the text of the source: active = 3.2 or more and inactive = the rest. The signal is at background level for most entries.
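Note: displayed peptides selected on beads carrying the immobilized SH2 domain, with library peptides lacking any tyrosine serving as negative controls.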

The first experiment concerns the target SHP2 C-SH2 domain E139D. Briefly: enrichment score (SH2-bound / input frequency) (ratio); bacterial display of known human phosphotyrosine sites (pTyr-Var adds point mutants) read by sequencing; higher = stronger binding; tyrosines were phosphorylated by kinases first. The following applies: peptide library: pTyr-Var.
With B1, the enrichment score was inactive: 1.39.

In the case of B2, the enrichment score is inactive: 1.3.

For the molecule B3, the enrichment score was inactive: 1.08.

On to B4, for which the enrichment score is inactive: 1.39.

For B5, the enrichment score is inactive: 0.789.

As for B6, the enrichment score is inactive: 0.864.

For the molecule B7, the enrichment score was inactive: 2.72.

As for B8, the enrichment score is inactive: 1.

Turning to B9, the enrichment score was inactive: 2.05.

As to B10, the enrichment score was inactive: 0.975.

B11: the enrichment score was inactive: 0.6.

As to B12, the enrichment score is inactive: 1.16.

Take B13: the enrichment score was inactive: 1.03.

As for B14, the enrichment score was inactive: 1.72.

In the case of B15, the enrichment score was inactive: 1.66.

With B16, the enrichment score is inactive: 1.15.

As for B17, the enrichment score was inactive: 1.2.

Turning to B18, the enrichment score is inactive: 0.799.

Another experiment has as its target SHP2 C-SH2 domain wild-type. The experiment is described as above. The settings on record: peptide library: pTyr-Var.
With B1, the enrichment score is inactive: 1.1.

Consider B2, for which the enrichment score was inactive: 1.11.

As for B3, the enrichment score was inactive: 1.08.

For B4, the enrichment score was inactive: 1.42.

In the case of B5, the enrichment score was inactive: 0.906.

Regarding B6, the enrichment score is inactive: 0.855.

For the molecule B7, the enrichment score was inactive: 1.37.

Regarding B8, the enrichment score was inactive: 0.951.

For B9, the enrichment score is inactive: 1.16.

With B10, the enrichment score is inactive: 1.14.

As to B11, the enrichment score is inactive: 0.87.

Consider B12, for which the enrichment score is inactive: 1.13.

As to B13, the enrichment score is inactive: 0.723.

As to B14, the enrichment score is inactive: 1.44.

As to B15, the enrichment score was inactive: 1.16.

With B16, the enrichment score was inactive: 0.987.

In the case of B17, the enrichment score is inactive: 1.55.

B18: the enrichment score was inactive: 0.695.

The target in the next experiment is SHP2 N-SH2 domain L43F. Described as above. The settings on record: peptide library: pTyr-Var.
Regarding B1, the enrichment score was inactive: 1.14.

Regarding B2, the enrichment score is inactive: 1.07.

Regarding B3, the enrichment score is inactive: 1.23.

For B4, the enrichment score is inactive: 1.76.

As for B5, the enrichment score was inactive: 1.04.

With B6, the enrichment score was inactive: 0.709.

With B7, the enrichment score was inactive: 0.426.

As for B8, the enrichment score is inactive: 0.963.

Consider B9, for which the enrichment score was inactive: 1.55.

As for B10, the enrichment score is inactive: 0.898.

As to B11, the enrichment score was inactive: 0.803.

In the case of B12, the enrichment score is inactive: 0.848.

B13: the enrichment score is inactive: 0.966.

As for B14, the enrichment score was inactive: 1.21.

Consider B15, for which the enrichment score is inactive: 1.36.

B16: the enrichment score was inactive: 0.794.

Consider B17, for which the enrichment score is inactive: 1.22.

Regarding B18, the enrichment score was inactive: 0.737.

A further experiment has as its target SHP2 N-SH2 domain T42A. The description is as above. The settings on record: peptide library: pTyr-Var.
Take B1: the enrichment score is inactive: 1.28.

As for B2, the enrichment score is inactive: 1.27.

Consider B3, for which the enrichment score is inactive: 1.08.

As for B4, the enrichment score was inactive: 1.39.

Turning to B5, the enrichment score is inactive: 0.818.

As for B6, the enrichment score was inactive: 0.786.

For B7, the enrichment score was inactive: 0.429.

In the case of B8, the enrichment score was inactive: 0.9.

Regarding B9, the enrichment score is inactive: 1.2.

Turning to B10, the enrichment score was inactive: 1.21.

B11: the enrichment score is inactive: 0.898.

Regarding B12, the enrichment score is inactive: 1.11.

With B13, the enrichment score was inactive: 0.798.

With B14, the enrichment score was inactive: 1.22.

For the molecule B15, the enrichment score was inactive: 1.17.

As to B16, the enrichment score is inactive: 0.874.

On to B17, for which the enrichment score is inactive: 1.54.

Consider B18, for which the enrichment score is inactive: 0.478.

In another experiment the target is SHP2 N-SH2 domain T52S. The description is as above. The settings on record: peptide library: pTyr-Var.
As for B1, the enrichment score is inactive: 1.06.

Turning to B2, the enrichment score was inactive: 1.36.

Take B3: the enrichment score is inactive: 0.93.

As for B4, the enrichment score is inactive: 2.94.

As to B5, the enrichment score is inactive: 1.01.

With B6, the enrichment score was inactive: 0.746.

For B7, the enrichment score is inactive: 0.411.

Take B8: the enrichment score was inactive: 0.9.

For the molecule B9, the enrichment score was inactive: 1.51.

For the molecule B10, the enrichment score is inactive: 1.21.

In the case of B11, the enrichment score was inactive: 0.79.

For B12, the enrichment score is inactive: 0.889.

In the case of B13, the enrichment score is inactive: 0.768.

With B14, the enrichment score was inactive: 1.58.

B15: the enrichment score is inactive: 0.936.

Consider B16, for which the enrichment score was inactive: 1.19.

Take B17: the enrichment score was inactive: 1.25.

On to B18, for which the enrichment score is inactive: 0.609.

For a further experiment, the target named is SHP2 N-SH2 domain wild-type. The description is as above. The following applies: peptide library: pTyr-Var.
Regarding B1, the enrichment score is inactive: 1.49.

On to B2, for which the enrichment score is inactive: 1.42.

B3: the enrichment score was inactive: 0.896.

On to B4, for which the enrichment score was inactive: 1.37.

With B5, the enrichment score is inactive: 1.07.

With B6, the enrichment score was inactive: 0.605.

B7: the enrichment score was inactive: 1.85.

For B8, the enrichment score was inactive: 1.03.

As to B9, the enrichment score was inactive: 1.09.

With B10, the enrichment score is inactive: 0.895.

B11: the enrichment score is inactive: 0.765.

On to B12, for which the enrichment score is inactive: 1.01.

On to B13, for which the enrichment score is inactive: 0.998.

Turning to B14, the enrichment score is inactive: 1.6.

With B15, the enrichment score is inactive: 1.4.

Regarding B16, the enrichment score is inactive: 0.971.

Consider B17, for which the enrichment score was inactive: 0.777.

For B18, the enrichment score is inactive: 0.842.
